Where “and” joins values, the source holds several entries; their conditions need not be identical. Equal entries are not always repeated. This list was built around the results that the source calls inconclusive (neither active nor inactive); the mix of calls is not that of the screen. For some of these results: Potencies beside an inconclusive call are fits to weak or partial responses and may not hold up. More than one record can exist for a structure, and the calls need not agree. Calls of active or inactive are those of the source. Unless noted, calls come from the whole dose curve; as a rule, active = well fitted curve in the direction sought with a large enough effect in the repeat runs; inconclusive = weak or mixed curves; inactive = no such curve, though single readings can be large; an effect the other way counts as inactive or inconclusive.
Assays:
[1] = qHTS assay for identifying genotoxic compounds that show differential cytotoxicity against isogenic chicken DT40 cell lines with known DNA damage response pathways - Rev3 mutant cell line (AID 743014); settings: chicken DT40 Rev3-/- viability, CellTiter-Glo, 40 h; activity, negative = cytotoxicity: at 68.4 µM (top of the series) unless noted; note: nearly all actives have a fitted effect of over 55% in size; note: potency is the fitted concentration of half-maximal effect
[2] = qHTS assay to identify small molecule antagonists of the thyroid receptor (TR) signaling pathway - cell viability counter screen (AID 743064); settings: GH3.TRE-Luc viability, CellTiter-Fluor, 24 h; activity change, negative = cytotoxic: at 70.3 µM (top of the series) unless noted; note: nearly all actives have a fitted effect of over 50% in size
Method in brief: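 Same-well viability check: GH3.TRE-Luc cells stimulated with 1 nM T3 alongside test compound for 23.5 h, followed by CellTiter-Fluor fluorescence.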

[3] = biological target: Peroxisome proliferator-activated receptor gamma (Homo sapiens) (UniProt P37231); assay: qHTS assay to identify small molecule antagonists of the peroxisome proliferator-activated receptor gamma (PPARg) signaling pathway (AID 743191; calls by dose curve; note: nearly all actives have a fitted effect of over 30% in size); settings: HEK293H PPARg-UAS-bla, beta-lactamase ratio, antagonist, 17 h; ratio activity, negative = inhibition: at 62.6 µM (top of the series) unless noted
Sequence of UniProt P37231 (P37231 whole entry, looked up): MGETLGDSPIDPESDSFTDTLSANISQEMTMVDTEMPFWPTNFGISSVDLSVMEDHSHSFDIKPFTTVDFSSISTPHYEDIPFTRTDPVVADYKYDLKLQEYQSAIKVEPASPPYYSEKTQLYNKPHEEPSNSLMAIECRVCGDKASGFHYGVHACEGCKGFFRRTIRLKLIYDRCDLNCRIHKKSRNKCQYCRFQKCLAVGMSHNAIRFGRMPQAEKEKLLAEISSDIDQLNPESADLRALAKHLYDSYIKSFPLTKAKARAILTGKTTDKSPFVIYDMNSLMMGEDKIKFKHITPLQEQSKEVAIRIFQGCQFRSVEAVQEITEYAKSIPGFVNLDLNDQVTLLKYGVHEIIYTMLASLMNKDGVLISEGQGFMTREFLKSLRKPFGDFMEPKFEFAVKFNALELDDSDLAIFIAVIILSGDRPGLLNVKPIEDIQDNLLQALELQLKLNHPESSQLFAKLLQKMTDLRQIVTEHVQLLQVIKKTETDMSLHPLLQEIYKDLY
Method in brief: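 GeneBLAzer PPARg UAS-bla HEK293H cells, 5 h post-plating, exposed to compounds 17 h at 37C. LiveBLAzer B/G FRET substrate added for 1 h at room temperature; beta-lactamase reporter read by fluorescence intensity.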

[4] = qHTS assay for small molecule agonists of the antioxidant response element (ARE) signaling pathway (AID 743202; active = well fitted activation curve with a large enough effect in the signal ratio in the repeat runs, not every such curve was filed as active; inconclusive = weak or mixed curves, or effect the other way; inactive = no such curve, though single readings can be large or run the other way; the % refers to the signal ratio; note: potency is the fitted concentration of half-maximal effect); settings: HepG2 ARE-bla reporter, beta-lactamase FRET, 16 h
Method in brief: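 HepG2 ARE-bla reporter line, 2,000 cells/well; 5 h preincubation 37 C/5% CO2; compound (DMSO) 16 h 37 C; B/G FRET substrate 2 h RT; fluorescence intensity.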

[5] = biological target: Retinoic acid receptor RXR-alpha (Homo sapiens) (UniProt P19793); assay: qHTS assay to identify small molecule agonists of the RXR signaling pathway (AID 1159527; calls by dose curve; note: nearly all actives have a fitted effect of over 35% in size; note: potency is the fitted concentration of half-maximal effect); settings: HEK293T RXRa-UAS-bla, beta-lactamase ratio, 16 h; activation: at 76.8 µM (top of the series) unless noted
Sequence of UniProt P19793 (P19793 whole entry, looked up): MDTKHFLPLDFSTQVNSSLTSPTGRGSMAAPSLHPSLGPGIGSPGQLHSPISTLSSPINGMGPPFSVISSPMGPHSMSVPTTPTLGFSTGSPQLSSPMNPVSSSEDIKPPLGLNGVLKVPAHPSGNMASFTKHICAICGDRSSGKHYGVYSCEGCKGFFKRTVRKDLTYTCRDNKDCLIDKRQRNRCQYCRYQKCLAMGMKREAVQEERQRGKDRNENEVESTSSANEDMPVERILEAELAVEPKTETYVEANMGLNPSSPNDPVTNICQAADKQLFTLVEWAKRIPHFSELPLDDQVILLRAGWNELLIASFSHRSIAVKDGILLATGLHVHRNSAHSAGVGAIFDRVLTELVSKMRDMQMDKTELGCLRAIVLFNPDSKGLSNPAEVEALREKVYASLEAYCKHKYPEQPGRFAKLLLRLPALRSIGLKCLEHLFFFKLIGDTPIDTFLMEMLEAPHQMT
Method in brief: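 Reporter activation is measured as beta-lactamase activity via FRET substrate cleavage (emission 460/530 nm) in HEK 293T cells expressing an RXR-alpha-driven bla construct, following 16 hr compound exposure at 37 C.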

[6] = biological target: Progesterone receptor (Homo sapiens) (UniProt P06401); assay: qHTS assay to identify small molecule antagonists of the progesterone receptor (PR) signaling pathway (AID 1346795; active = well fitted inhibition curve with a large enough effect in the signal ratio in the repeat runs, not every such curve was filed as active; inconclusive = weak or mixed curves; the % refers to the signal ratio; note: potency is the fitted concentration of half-maximal effect); settings: PR-UAS-bla HEK293T, beta-lactamase FRET ratio, 16 h
Sequence of UniProt P06401 (P06401 whole entry, looked up): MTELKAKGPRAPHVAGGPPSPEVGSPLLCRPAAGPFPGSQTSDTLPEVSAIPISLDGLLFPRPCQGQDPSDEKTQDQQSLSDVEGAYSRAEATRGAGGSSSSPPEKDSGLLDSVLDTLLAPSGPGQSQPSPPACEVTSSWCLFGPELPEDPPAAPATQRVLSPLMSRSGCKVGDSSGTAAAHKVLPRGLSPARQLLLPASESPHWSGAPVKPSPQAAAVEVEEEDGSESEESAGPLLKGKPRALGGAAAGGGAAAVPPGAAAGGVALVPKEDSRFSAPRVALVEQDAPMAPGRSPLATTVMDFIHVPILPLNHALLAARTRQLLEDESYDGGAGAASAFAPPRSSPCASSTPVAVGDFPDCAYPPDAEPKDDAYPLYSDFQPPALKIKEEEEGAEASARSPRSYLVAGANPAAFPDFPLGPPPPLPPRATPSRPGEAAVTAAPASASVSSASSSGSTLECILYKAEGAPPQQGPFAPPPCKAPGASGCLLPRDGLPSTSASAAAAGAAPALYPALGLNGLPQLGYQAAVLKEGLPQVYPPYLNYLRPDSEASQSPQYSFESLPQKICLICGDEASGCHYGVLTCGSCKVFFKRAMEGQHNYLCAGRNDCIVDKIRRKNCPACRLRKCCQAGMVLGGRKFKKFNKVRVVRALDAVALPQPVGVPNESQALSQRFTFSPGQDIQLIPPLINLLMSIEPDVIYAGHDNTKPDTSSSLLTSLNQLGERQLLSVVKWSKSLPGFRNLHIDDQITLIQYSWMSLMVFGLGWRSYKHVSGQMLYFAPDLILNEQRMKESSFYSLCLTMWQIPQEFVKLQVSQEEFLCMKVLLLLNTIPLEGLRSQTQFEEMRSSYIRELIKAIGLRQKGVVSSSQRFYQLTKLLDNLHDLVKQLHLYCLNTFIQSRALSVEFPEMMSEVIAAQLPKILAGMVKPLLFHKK
Method in brief: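 After 6 hr plating at 37C in 2% stripped-serum medium, PR-UAS-bla HEK293T cells got compounds, then 1 nM R5020. Sixteen hours later, LiveBLAzer substrate was applied for 2 hr at room temperature and fluorescence was recorded.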

[7] = qHTS assay for small molecule disruptors of the mitochondrial membrane potential (AID 720635); settings: HepG2 mitochondrial membrane potential, Mito-MPS dye ratio; ratio activity, negative = MMP loss: at 83.2 µM (top of the series) unless noted; note: potency is the fitted concentration of half-maximal effect
Method in brief: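 HepG2 cells exposed to compound 1 hr at 37C, then Mito-MPS dye 30 min. Ratio read of aggregate (540/590 nm) versus monomer (490/535 nm) fluorescence.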

[8] = biological target: Estrogen receptor beta (Homo sapiens) (UniProt Q92731); assay: qHTS assay to identify small molecule antagonists of the estrogen receptor beta (ER-beta) signaling pathway (AID 1259378; active = well fitted inhibition curve with a large enough effect in the signal ratio in the repeat runs, not every such curve was filed as active; inconclusive = weak or mixed curves, or effect the other way; inactive = no such curve, though single readings can be large or run the other way; the % refers to the signal ratio; note: potency is the fitted concentration of half-maximal effect); settings: ER-beta-UAS-bla HEK293T, beta-lactamase FRET ratio, 16 h; activity, negative = inhibition: at 92.4 µM (top of the series) unless noted
Sequence of UniProt Q92731 (Q92731 whole entry, looked up): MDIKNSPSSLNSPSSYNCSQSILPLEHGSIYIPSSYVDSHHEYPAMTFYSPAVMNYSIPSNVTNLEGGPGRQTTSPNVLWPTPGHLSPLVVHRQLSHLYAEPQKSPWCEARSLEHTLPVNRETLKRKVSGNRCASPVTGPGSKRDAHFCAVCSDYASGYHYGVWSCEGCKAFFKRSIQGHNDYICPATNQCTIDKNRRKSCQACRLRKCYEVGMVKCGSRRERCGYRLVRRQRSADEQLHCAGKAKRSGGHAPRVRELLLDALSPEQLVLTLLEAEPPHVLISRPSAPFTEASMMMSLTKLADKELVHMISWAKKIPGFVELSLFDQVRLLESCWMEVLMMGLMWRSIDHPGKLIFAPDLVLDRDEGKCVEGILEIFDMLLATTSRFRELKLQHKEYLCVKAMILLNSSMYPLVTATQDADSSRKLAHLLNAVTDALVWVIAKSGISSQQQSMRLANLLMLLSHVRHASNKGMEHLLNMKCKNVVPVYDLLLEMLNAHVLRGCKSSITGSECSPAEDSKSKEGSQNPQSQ
Method in brief: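 ER-beta-UAS-bla HEK293T cells in 2% charcoal-stripped FBS medium treated with compound plus 1nM final 17-beta-estradiol for 16 hr at 37C. Beta-lactamase reporter read by FRET substrate fluorescence after 2 hours at room temperature.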

[9] = biological target: Glucocorticoid receptor (Homo sapiens) (UniProt P04150); assay: qHTS assay to identify small molecule antagonists of the glucocorticoid receptor (GR) signaling pathway (AID 720692; active = well fitted inhibition curve with a large enough effect in the signal ratio in the repeat runs, not every such curve was filed as active; inconclusive = weak or mixed curves, or effect the other way; inactive = no such curve, though single readings can be large or run the other way; the % refers to the signal ratio; note: potency is the fitted concentration of half-maximal effect); settings: GR-bla HeLa, beta-lactamase FRET ratio, dexamethasone-stimulated, 18 h; activity change, negative = inhibition: at 58.5 µM (top of the series) unless noted
Sequence of UniProt P04150 (P04150 whole entry, looked up): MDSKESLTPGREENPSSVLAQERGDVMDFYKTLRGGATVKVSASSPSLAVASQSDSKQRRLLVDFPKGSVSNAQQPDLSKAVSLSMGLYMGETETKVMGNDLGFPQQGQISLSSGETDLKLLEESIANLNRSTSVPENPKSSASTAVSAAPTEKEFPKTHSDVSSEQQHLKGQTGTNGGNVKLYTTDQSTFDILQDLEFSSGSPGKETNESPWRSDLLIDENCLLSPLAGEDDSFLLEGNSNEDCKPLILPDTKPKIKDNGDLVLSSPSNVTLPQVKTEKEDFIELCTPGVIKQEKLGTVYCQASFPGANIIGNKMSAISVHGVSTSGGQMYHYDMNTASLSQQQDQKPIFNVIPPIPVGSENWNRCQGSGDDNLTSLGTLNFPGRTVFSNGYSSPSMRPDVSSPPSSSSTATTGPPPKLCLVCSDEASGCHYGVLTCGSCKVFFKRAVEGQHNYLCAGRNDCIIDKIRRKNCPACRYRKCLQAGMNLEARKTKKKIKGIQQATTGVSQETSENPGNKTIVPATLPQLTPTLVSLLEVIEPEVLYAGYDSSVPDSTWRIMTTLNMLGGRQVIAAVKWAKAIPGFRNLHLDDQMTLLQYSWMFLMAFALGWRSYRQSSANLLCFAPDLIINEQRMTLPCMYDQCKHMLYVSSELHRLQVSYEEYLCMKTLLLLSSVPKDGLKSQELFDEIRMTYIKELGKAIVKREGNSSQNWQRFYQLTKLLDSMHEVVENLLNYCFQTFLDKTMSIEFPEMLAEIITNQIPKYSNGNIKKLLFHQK
Method in brief: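 Antagonism was scored as loss of dexamethasone-driven (5 nM final) reporter signal in HeLa cells bearing a glucocorticoid response element–beta-lactamase construct, after 18 h compound exposure at 37 C and 2 h FRET substrate loading.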

[10] = qHTS assay for identifying genotoxic compounds that show differential cytotoxicity against isogenic chicken DT40 cell lines with known DNA damage response pathways - wild type cell line (AID 743012); settings: DT40 wild type chicken cells viability, CellTiter-Glo, 40 h; activity change, negative = cytotoxicity: at 68.4 µM (top of the series) unless noted; note: nearly all actives have a fitted effect of over 60% in size; note: potency is the fitted concentration of half-maximal effect
Method in brief: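 Cytotoxicity in repair-proficient parental chicken DT40 cells serves as the comparator for Rad54/Ku70- and Rev3-deficient lines. Cells were exposed to compounds for 40 h at 37 C/5% CO2, and ATP-based luminescence (CellTiter-Glo) measured viability.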

[11] = biological target: Peroxisome proliferator-activated receptor delta (Homo sapiens) (UniProt Q03181); assay: qHTS assay to identify small molecule antagonists of the peroxisome proliferator-activated receptor delta (PPARd) signaling pathway (AID 743215; active = well fitted inhibition curve with a large enough effect in the signal ratio in the repeat runs, not every such curve was filed as active; inconclusive = weak or mixed curves, or effect the other way; inactive = no such curve, though single readings can be large or run the other way; the % refers to the signal ratio;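 note: cells stimulated with agonist L165041 at 300 nM final during compound exposure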); settings: HEK293H PPARd-UAS-bla, beta-lactamase FRET ratio, antagonist, 17 h; ratio activity, negative = inhibition: at 62 µM (top of the series) unless noted
Method in brief: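 Cells: HEK293H with a UAS-driven beta-lactamase reporter responsive to PPARd. Compounds were co-added with L165041 (300 nM, final) and incubated 17 h at 37 C before a 2 h room-temperature FRET substrate step and fluorescence reading.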

[12] = qHTS assay to identify small molecule agonists of the farnesoid-X-receptor (FXR) signaling pathway - cell viability counter screen (AID 743218); settings: FXR-bla HEK293T viability, CellTiter-Glo luminescence, 16 h; viability change, negative = cytotoxic: at 62.6 µM (top of the series) unless noted; note: nearly all actives have a fitted effect of over 45% in size; note: potency is the fitted concentration of half-maximal effect
Method in brief: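 Cells were seeded, left 5 h at 37 C and 5% CO2, then dosed with compound in DMSO for 16 h. After the beta-lactamase FRET read, CellTiter-Glo was added and luminescence measured 30 min later.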

[13] = biological target: Vitamin D3 receptor (Homo sapiens) (UniProt P11473); assay: qHTS assay to identify small molecule antagonists of the vitamin D receptor (VDR) signaling pathway (AID 743223; active = well fitted inhibition curve with a large enough effect in the signal ratio in the repeat runs, not every such curve was filed as active; inconclusive = weak or mixed curves, or effect the other way; inactive = no such curve, though single readings can be large or run the other way; the % refers to the signal ratio); settings: VDR-UAS-bla HEK293T, beta-lactamase FRET ratio, 16 h; activity change, negative = inhibition: at 61 µM (top of the series) unless noted
Sequence of UniProt P11473 (P11473 whole entry, looked up): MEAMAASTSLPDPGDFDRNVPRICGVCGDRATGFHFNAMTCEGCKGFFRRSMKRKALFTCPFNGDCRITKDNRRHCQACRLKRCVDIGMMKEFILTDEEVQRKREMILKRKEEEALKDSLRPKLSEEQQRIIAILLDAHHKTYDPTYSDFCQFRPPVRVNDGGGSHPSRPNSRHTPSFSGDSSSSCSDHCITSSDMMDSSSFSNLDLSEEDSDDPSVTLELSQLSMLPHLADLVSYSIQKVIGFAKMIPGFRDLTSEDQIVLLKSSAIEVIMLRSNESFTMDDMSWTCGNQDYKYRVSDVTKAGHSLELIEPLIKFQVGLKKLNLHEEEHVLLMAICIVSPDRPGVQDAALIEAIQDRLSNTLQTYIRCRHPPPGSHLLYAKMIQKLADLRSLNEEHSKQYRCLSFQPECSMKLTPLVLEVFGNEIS
Method in brief: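 After VDR-bla cells are plated and left 4 h at 37C, DMSO-dissolved compounds and 3 nM (final) calcitriol agonist are added. Incubation continues 16 h at 37C; FRET beta-lactamase substrate then develops 2 h at room temperature.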

[14] = biological target: Thyrotropin receptor (Homo sapiens) (UniProt P16473); assay: qHTS assay to identify small molecule agonists of the thyroid stimulating hormone receptor (TSHR) signaling pathway (AID 1224843; calls by dose curve; note: nearly all actives have a fitted effect of over 45% in size); settings: TSHR-HEK293 cells, cAMP HTRF, agonist mode, 30 min; activation: at 92.4 µM (top of the series) unless noted
Sequence of UniProt P16473 (P16473 whole entry, looked up): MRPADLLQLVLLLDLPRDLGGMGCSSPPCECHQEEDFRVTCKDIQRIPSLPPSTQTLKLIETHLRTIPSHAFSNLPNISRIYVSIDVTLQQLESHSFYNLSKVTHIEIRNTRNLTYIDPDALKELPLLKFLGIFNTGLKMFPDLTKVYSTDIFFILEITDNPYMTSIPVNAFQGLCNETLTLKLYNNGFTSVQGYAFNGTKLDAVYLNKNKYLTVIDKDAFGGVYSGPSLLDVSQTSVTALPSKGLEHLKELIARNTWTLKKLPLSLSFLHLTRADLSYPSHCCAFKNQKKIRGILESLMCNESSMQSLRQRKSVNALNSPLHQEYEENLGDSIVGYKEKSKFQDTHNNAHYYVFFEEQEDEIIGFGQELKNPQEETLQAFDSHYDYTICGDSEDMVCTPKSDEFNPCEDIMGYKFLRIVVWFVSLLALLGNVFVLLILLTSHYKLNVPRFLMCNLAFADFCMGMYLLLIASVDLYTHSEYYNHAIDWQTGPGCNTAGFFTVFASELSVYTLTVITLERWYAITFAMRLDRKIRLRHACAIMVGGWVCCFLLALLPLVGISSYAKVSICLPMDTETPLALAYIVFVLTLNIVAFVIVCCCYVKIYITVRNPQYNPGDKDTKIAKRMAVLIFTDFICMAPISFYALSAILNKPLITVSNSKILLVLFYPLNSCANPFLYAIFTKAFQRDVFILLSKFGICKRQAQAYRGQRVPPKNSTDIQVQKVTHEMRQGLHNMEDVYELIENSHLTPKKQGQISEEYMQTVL
Method in brief: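 HEK293/TSHR, 800 cells/well; cpd 30 min RT; add cAMP-d2 + anti-cAMP-cryptate, 1 h RT; fluorescence read on plate reader. 15-pt titration, n=3.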

[15] = qHTS assay for small molecule agonists of the p53 signaling pathway (AID 651631; calls by dose curve; note: nearly all actives have a fitted effect of over 15% in size; note: potency is the fitted concentration of half-maximal effect); settings: HCT-116 p53RE-bla reporter, beta-lactamase FRET ratio, 16 h; activation: at 73.3 µM (top of the series) unless noted
Method in brief: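 Fluorescence intensity from cleaved LiveBLAzer B/G substrate (2 h, room temperature) served as the signal. Beforehand, HCT-116 reporter cells bearing p53 response elements were treated 16 h at 37 °C with DMSO-dissolved compounds.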

[16] = biological target: Cytochrome P450 1A2 (Homo sapiens) (UniProt P05177); assay: Cytochrome P450 Family 1 Subfamily A Member 2 (CYP1A2) small molecule antagonists: luciferase reporter qHTS assay (AID 1671199); note: nearly all actives have a fitted effect of over 50% in size; note: potency is the fitted concentration of half-maximal effect
Sequence of UniProt P05177 (P05177 whole entry, looked up): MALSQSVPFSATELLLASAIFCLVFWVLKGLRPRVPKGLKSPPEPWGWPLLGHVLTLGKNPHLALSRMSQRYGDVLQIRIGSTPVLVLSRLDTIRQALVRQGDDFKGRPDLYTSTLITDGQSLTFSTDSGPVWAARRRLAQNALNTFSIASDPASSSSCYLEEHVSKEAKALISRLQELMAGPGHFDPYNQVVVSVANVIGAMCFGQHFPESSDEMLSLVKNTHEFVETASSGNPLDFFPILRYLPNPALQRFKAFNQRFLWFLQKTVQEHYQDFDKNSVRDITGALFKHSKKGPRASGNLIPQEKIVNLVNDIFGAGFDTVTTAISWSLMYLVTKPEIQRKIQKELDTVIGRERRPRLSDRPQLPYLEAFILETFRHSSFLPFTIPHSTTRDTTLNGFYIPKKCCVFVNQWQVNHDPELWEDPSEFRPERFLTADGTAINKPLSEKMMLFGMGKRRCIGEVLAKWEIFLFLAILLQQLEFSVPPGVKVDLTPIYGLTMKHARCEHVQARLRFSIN
Method in brief: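 Compounds were incubated with CYP1A2 and a luminogenic proluciferin substrate for 10 min at room temperature before the reaction was started with NADPH regeneration solution. After 1 h, detection reagent was added and light output, proportional to CYP activity, was recorded.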

[17] = biological target: Estrogen receptor (Homo sapiens) (UniProt P03372); assay: qHTS assay to identify small molecule agonists of the estrogen receptor alpha (ER-alpha) signaling pathway using the BG1 cell line (AID 743079); settings: BG1Luc4E2 cells, ERE-luciferase agonist, 22 h; activation: at 70.3 µM (top of the series) unless noted; note: nearly all actives have a fitted effect of over 20% in size; note: potency is the fitted concentration of half-maximal effect
[18] = qHTS assay to identify small molecule agonists of the progesterone receptor (PR) signaling pathway - cell viability counter screen (AID 1346799; calls by dose curve; note: nearly all actives have a fitted effect of over 45% in size; note: potency is the fitted concentration of half-maximal effect)
Method in brief: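 Viability was scored by ATP luminescence (CellTiter-Glo, 30 min, room temperature) in the same wells used for the reporter readout, after 16 hr compound exposure of PR-UAS-bla HEK293T cells.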

[19] = biological target: Cytochrome P450 2C9 (Homo sapiens) (UniProt P11712); assay: Cytochrome P450 Family 2 Subfamily C Member 9 (CYP2C9) small molecule antagonists: luciferase reporter qHTS assay (AID 1671198); note: nearly all actives have a fitted effect of over 50% in size; note: potency is the fitted concentration of half-maximal effect
Method in brief: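 P450-Glo proluciferin substrate with CYP2C9 enzyme; 10 min RT preincubation, then NADPH regeneration 1 h at 37C; luciferin detection reagent 20 min RT, luminescence in relative luminescence units.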

[20] = biological target: Cytochrome P450 2C19 (Homo sapiens) (UniProt P33261); assay: Cytochrome P450 Family 2 Subfamily C Member 19 (CYP2C19) small molecule antagonists: luciferase reporter qHTS assay (AID 1671197); note: nearly all actives have a fitted effect of over 65% in size; note: potency is the fitted concentration of half-maximal effect
Method in brief: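 Compounds were tested on CYP2C19 activity via proluciferin conversion to luciferin. The 37C, 1 h reaction followed NADPH addition; detection reagent stopped it.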

[21] = activation: at 73.3 µM (top of the series) unless noted
[22] = activity change, negative = inhibition: at 92.4 µM (top of the series) unless noted
% is set by controls: 0 for no effect and ±100 for the full control effect; tags give direction and shape of the fitted curve or compound fluorescence and quenching.

COC(=O)CCC(=O)O
inconclusive: activation [4, 21] 8.1%
inactive: Potency [1] | Potency [2] | Potency [3] | Potency [5] | Potency [6, 22]

Nc1ccc(C(=O)NCC(=O)O)cc1
inactive: Potency [3] | Potency [5]
inconclusive: Potency [7] 5.07 µM [activator, single point] | Potency [1] 9.02 µM [rising, partial curve, poor fit] | activity, negative = inhibition [8] 18.7% [at 42.5 µM]

CN(C)c1ccc(Cc2ccc(N(C)C)cc2)cc1
active: Potency [7] 54.7 µM
inconclusive: Potency [9] 0.196 µM [activator, single point] | Potency [10] 61.4 µM [cytotoxic, single point] | Potency [12] 49 µM [rising, single point] | activation [5] -17.8% | activation [14] -22.9% and -25.1% | activity, negative = inhibition [8] 10.3% | activity change, negative = inhibition [6, 22] -23.2%
inactive: Potency [11] | Potency [13] | activity change, negative = inhibition ([6]; at 92.4 µM (top of the series)) -20.7%

CC(C[N+](C)(C)C)OC(N)=O (stereo not drawn)
inactive: Potency [15] | Potency [3] | Potency [5]
inconclusive: Potency [16] 25.7 µM [inhibitor, partial curve]

CC1(COc2ccc(CC3SC(=O)NC3=O)cc2)CCCCC1 (stereo not drawn)
active: Potency [15] 33.5 µM
inactive: Potency [16]
inconclusive: Potency [9] 23.9 µM [cytotoxic, partial curve] | Potency [17] 33.5 µM [inhibitor, single point] | Potency [4, 21] 29.8 µM [rising, single point] | activity change, negative = inhibition [13] 12.4% | Potency [5] 3.01 µM [rising, full curve, poor fit] | Potency [8] 0.237 µM [falling, single point] | Potency [6, 22] 15 µM [rising, single point] | Potency [18] 3.35 µM [cytotoxic, full curve, poor fit] | Potency [19] 30.9 µM [inhibitor, partial curve]

CC(C)(C)NC[C@H](O)COc1nsnc1N1CCOCC1
inactive: activation ([4]; at 73.3 µM (top of the series)) 1.15% | Potency [13]
inconclusive: ratio activity, negative = MMP loss [7] -2.39% | activation [4, 21] -16.6% | Potency [12] 33.5 µM [cytotoxic, single point] | Potency [5] 54.9 µM [activator, partial curve, poor fit]

CC1OC(=O)C(C)OC1=O (stereo not drawn)
inconclusive: Potency [17] 68.6 µM [activator, single point]
inactive: Potency [9] | Potency [10] | Potency [3] | Potency [5] | Potency [16]

CCCCCCCCCCCCCCCCI
inactive: Potency [7] | Potency [2] | Potency [4, 21] | Potency [13] | activation [5] 7.13% [at 15.8 µM] | activity change, negative = inhibition [20] -28.1% [at 23.6 µM] | activity change, negative = inhibition [19] -1.09% [at 23.6 µM]

O=C(O)c1cccc(O)c1
inactive: Potency [4, 21] | Potency [14] | Potency [18]
inconclusive: activity change, negative = inhibition [13] -0.446% [at 78.8 µM] | activation [5] 21.6% | Potency [19] 25.4 µM [inhibitor, full curve, poor fit] | Potency [16] 63.8 µM [inhibitor, partial curve, poor fit]

CCCCCCCCCCOC(C)=O
active: Potency [17] 61.1 µM
inactive: Potency [15] | Potency [9] | Potency [3] | Potency [13] | Potency [5] | Potency [16]

O=c1cc[nH]c(=S)[nH]1
active: Potency [5] 0.493 µM
inconclusive: Potency [10] 17.3 µM [rising, partial curve, poor fit] | activation [17] 4.7% [phenotype inactive] [at 95 µM] | activity change, negative = inhibition [6, 22] 4.04% [at 42.5 µM] | Potency [19] 19.5 µM [inhibitor, full curve, poor fit]
inactive: Potency [7] | Potency [3]

COC(=O)c1cc(Cl)ccc1[N+](=O)[O-]
inactive: Potency [7] | Potency [12] | Potency [8]
inconclusive: Potency [15] 0.611 µM [activator, single point] | Potency [1] 61.1 µM [cytotoxic, partial curve, poor fit] | Potency [5] 24.5 µM [activator]

CCCCCCCCc1ccc(Nc2ccc(CCCCCCCC)cc2)cc1
inconclusive: Potency [20] 43.6 µM [inhibitor, single point] | Potency [19] 30.9 µM [inhibitor] | Potency [16] 34.7 µM [inhibitor, partial curve, poor fit]
inactive: Potency [5] | Potency [14]
